In all, about 2,000 compounds went through this assay and about 110 (5.5%) showed an effect of 50% or more. Some of the results follow.
Biological target: Genome polyprotein (dengue virus type 2) (UniProt P29990)
[1] = Thailand/16681/1984, Concentration 25.0 uM, Number of replicates 1.0

`Cc1nn(CCc2cc(F)cc(F)c2)cc1C1CCNCC1` was tested, and the inhibition (Thailand/16681/1984, Concentration 49.5 uM, Number of replicates 2.0, Standard deviation 1.1346393127123868 %) was -1.21%, the inhibition (Thailand/16681/1984, Concentration 99.01 uM, Number of replicates 2.0, Standard deviation 1.9848261941502932 %) was -1.9% and the inhibition (Thailand/16681/1984, Concentration 198.0 uM, Number of replicates 2.0, Standard deviation 2.5836257952746067 %) was -1.09%.

Compound `CCOc1ccc(CCNC(=O)C2CCN(c3ccc(C=O)cc3)CC2)cc1` has an inhibition [1] of 12.1%.

In the case of `CNC(=O)c1ccc2n1CCN(S(=O)(=O)CCn1cnc3ccccc31)[C@@H]2C`, the inhibition (Thailand/16681/1984, Concentration 49.5 uM, Number of replicates 2.0, Standard deviation 0.8922565379957527 %) is reported as -2.4%, the inhibition (Thailand/16681/1984, Concentration 99.01 uM, Number of replicates 2.0, Standard deviation 0.9153368265898945 %) is reported as -2.77% and the inhibition (Thailand/16681/1984, Concentration 198.0 uM, Number of replicates 2.0, Standard deviation 0.6530625516906042 %) is reported as -3.58%.

Compound `CNC(=O)c1cc(Cl)ccc1NC(=O)CNc1ccc(S(N)(=O)=O)cc1F` has an inhibition (Thailand/16681/1984, Concentration 49.5 uM, Number of replicates 2.0, Standard deviation 0.21195144353946477 %) of -7.68%, an inhibition (Thailand/16681/1984, Concentration 99.01 uM, Number of replicates 2.0, Standard deviation 1.473382848647963 %) of -4.07% and an inhibition (Thailand/16681/1984, Concentration 198.0 uM, Number of replicates 2.0, Standard deviation 1.1692781637763987 %) of -4.73%.

In the case of `CC(C)(C)OC(=O)N[C@H](C(=O)Nc1cccc(CN)c1)c1ccc(OCc2ccccc2)cc1`, the inhibition (Thailand/16681/1984, Concentration 49.5 uM, Number of replicates 2.0, Standard deviation 1.7551947166429631 %) is reported as -1.9%, the inhibition (Thailand/16681/1984, Concentration 99.01 uM, Number of replicates 2.0, Standard deviation 0.05489981052071439 %) is reported as 3.23% and the inhibition (Thailand/16681/1984, Concentration 198.0 uM, Number of replicates 2.0, Standard deviation 0.6374768156986698 %) is reported as 15%.

For `O=Cc1ccc(N2CCC(C(=O)NCC(=O)NCc3ccccc3)CC2)cc1`, the inhibition [1] was 14%.

`COc1ccc(C(=O)C2CCN(C(=O)C3CCN(c4ccc(C=O)cc4)CC3)CC2)cc1` gave an inhibition [1] of 10.3%.

In the case of `O=Cc1ccc(N2CCC(C(=O)NCc3ccc(-c4ccccn4)cc3)CC2)cc1`, the inhibition [1] is reported as 6.55%.

`O=C(NCc1nnc[nH]1)c1ccn([C@H]2CCCNC2)n1` was tested, and the inhibition (Thailand/16681/1984, Concentration 49.5 uM, Number of replicates 2.0, Standard deviation 0.8091731298758035 %) was -2.94%, the inhibition (Thailand/16681/1984, Concentration 99.01 uM, Number of replicates 2.0, Standard deviation 7.216634091490219 %) was 1.81% and the inhibition (Thailand/16681/1984, Concentration 198.0 uM, Number of replicates 2.0, Standard deviation 0.9732760992378204 %) was -4.06%.

Work on `N#Cc1cccc(-c2nc3c(C(=O)Nc4ccccc4)cc(Cl)cc3[nH]2)c1` yielded an inhibition (Thailand/16681/1984, Concentration 99.5 uM, Number of replicates 2.0, Standard deviation 7.963520922762683 %) of 14.4% and an inhibition (Thailand/16681/1984, Concentration 295.6 uM, Number of replicates 2.0, Standard deviation 58.7613445679075 %) of 56.6%.

Compound `CNC(=O)c1cc(Cl)ccc1NS(=O)(=O)c1ccc(OC2CCCC2)nc1` has an inhibition (Thailand/16681/1984, Concentration 49.5 uM, Number of replicates 2.0, Standard deviation 1.7218457698776273 %) of 4.61%, an inhibition (Thailand/16681/1984, Concentration 99.01 uM, Number of replicates 2.0, Standard deviation 2.770217269330824 %) of 9.09% and an inhibition (Thailand/16681/1984, Concentration 198.0 uM, Number of replicates 2.0, Standard deviation 2.636140389197544 %) of 19.8%.

`O=C(c1cc[nH]c(=O)c1)N1CCc2c(-c3nn[nH]n3)cccc21` showed an inhibition (Thailand/16681/1984, Concentration 49.5 uM, Number of replicates 2.0, Standard deviation 1.1797090662409355 %) of 0.403%, an inhibition (Thailand/16681/1984, Concentration 99.01 uM, Number of replicates 2.0, Standard deviation 2.199955320406661 %) of 2.52% and an inhibition (Thailand/16681/1984, Concentration 198.0 uM, Number of replicates 2.0, Standard deviation 2.365187741015073 %) of 6.37%.

With `CCn1ncc(-c2ccccc2C(=O)Nc2cnn(C)c2)c1F` the inhibition (Thailand/16681/1984, Concentration 49.5 uM, Number of replicates 2.0, Standard deviation 1.7362397615810676 %) was -3.37%, the inhibition (Thailand/16681/1984, Concentration 99.01 uM, Number of replicates 2.0, Standard deviation 3.5632406540879202 %) was -3.71% and the inhibition (Thailand/16681/1984, Concentration 198.0 uM, Number of replicates 2.0, Standard deviation 2.004108271976906 %) was -1.89%.

`CC(C)N(CCN1CCCCCC1)C(=O)C1CCN(c2ccc(C=O)cc2)CC1` gave an inhibition [1] of 8.55%.

`Cc1ccc(Cl)cc1N1CCN(C(=O)C2CCN(c3ccc(C=O)cc3)CC2)CC1` was tested, and the inhibition [1] was 7.08%.

Compound `c1ccc2c([C@H]3CCN(Cc4cccn5nccc45)C3)c[nH]c2c1` has an inhibition (Thailand/16681/1984, Concentration 50.0 uM, Number of replicates 2.0, Standard deviation 0.44384694438167865 %) of 2.85%, an inhibition (Thailand/16681/1984, Concentration 100.0 uM, Number of replicates 2.0, Standard deviation 0.10784569314446374 %) of 6.29% and an inhibition (Thailand/16681/1984, Concentration 200.0 uM, Number of replicates 2.0, Standard deviation 0.2525425675781247 %) of 8.99%.

For `Cn1cc(NC(=O)c2ccccc2C(F)(F)F)c(-c2c[nH]c3ncccc23)n1`, the inhibition (Thailand/16681/1984, Concentration 49.5 uM, Number of replicates 2.0, Standard deviation 2.0973225812936915 %) was -1.12%, the inhibition (Thailand/16681/1984, Concentration 99.01 uM, Number of replicates 2.0, Standard deviation 0.5651732227286548 %) was -1.36% and the inhibition (Thailand/16681/1984, Concentration 198.0 uM, Number of replicates 2.0, Standard deviation 1.6135892292538794 %) was -0.338%.

In the case of `COC[C@@H](C)CNC(=O)c1cc(Cl)ccc1NS(=O)(=O)c1ccc(Oc2ccccc2Cl)cc1`, the inhibition (Thailand/16681/1984, Concentration 49.5 uM, Number of replicates 2.0, Standard deviation 0.2816677257730929 %) is reported as 82.2%, the inhibition (Thailand/16681/1984, Concentration 99.01 uM, Number of replicates 2.0, Standard deviation 0.03025941418209339 %) is reported as 83.8% and the inhibition (Thailand/16681/1984, Concentration 198.0 uM, Number of replicates 2.0, Standard deviation 0.3452939569842909 %) is reported as 76.9%.

Work on `COc1cc(COc2cccnc2F)nc(N2CCNCC2)n1` yielded an inhibition (Thailand/16681/1984, Concentration 49.5 uM, Number of replicates 2.0, Standard deviation 0.982901153958829 %) of -1.13%, an inhibition (Thailand/16681/1984, Concentration 99.01 uM, Number of replicates 2.0, Standard deviation 1.0780206061954283 %) of -0.42% and an inhibition (Thailand/16681/1984, Concentration 198.0 uM, Number of replicates 2.0, Standard deviation 1.1287509765069297 %) of -1.56%.

`CNC(=O)c1ccc(NS(=O)(=O)c2ccc(OC)cc2)cc1` showed an inhibition (Thailand/16681/1984, Concentration 49.5 uM, Number of replicates 2.0, Standard deviation 2.0586402248038174 %) of 1.38%, an inhibition (Thailand/16681/1984, Concentration 99.01 uM, Number of replicates 2.0, Standard deviation 1.3136382901588135 %) of 0.82% and an inhibition (Thailand/16681/1984, Concentration 198.0 uM, Number of replicates 2.0, Standard deviation 0.9863992791649605 %) of 2.03%.

— ChEMBL document CHEMBL5606460, “ASAP - DENV-2 NS2B-NS3 protease fluorescence single point” (2024)
